Experimental data taken from PubChem BioAssay AID1159614 (National Center for Advancing Translational Sciences (NCATS), 2016).
Among all 45,000 compounds or so, about 65 (0.1%) were called active. Calls follow the shape of the dose curve; as a rule, active = well fitted activation curve with a large enough effect; inconclusive = small, poorly fitted or top-dose-only effect; inactive = no such curve, though single readings can be large or run the other way. The list shows a part of the results.

Each compound was assayed against Galactocerebrosidase (Homo sapiens) (UniProt P54803) (assay: A Novel Cell-Based Assay to Identify Small Molecules for B -Galactocerebrosidase). Details: 145M-Twi-hGALC-G270D cells (Twitcher mouse brain line with human GALC G270D), HMU-beta-Gal fluorescence, 48 h; series mostly up to 57.5 µM; activation: at the top concentration.
UniProt P54803, sequence (P54803 whole entry, looked up): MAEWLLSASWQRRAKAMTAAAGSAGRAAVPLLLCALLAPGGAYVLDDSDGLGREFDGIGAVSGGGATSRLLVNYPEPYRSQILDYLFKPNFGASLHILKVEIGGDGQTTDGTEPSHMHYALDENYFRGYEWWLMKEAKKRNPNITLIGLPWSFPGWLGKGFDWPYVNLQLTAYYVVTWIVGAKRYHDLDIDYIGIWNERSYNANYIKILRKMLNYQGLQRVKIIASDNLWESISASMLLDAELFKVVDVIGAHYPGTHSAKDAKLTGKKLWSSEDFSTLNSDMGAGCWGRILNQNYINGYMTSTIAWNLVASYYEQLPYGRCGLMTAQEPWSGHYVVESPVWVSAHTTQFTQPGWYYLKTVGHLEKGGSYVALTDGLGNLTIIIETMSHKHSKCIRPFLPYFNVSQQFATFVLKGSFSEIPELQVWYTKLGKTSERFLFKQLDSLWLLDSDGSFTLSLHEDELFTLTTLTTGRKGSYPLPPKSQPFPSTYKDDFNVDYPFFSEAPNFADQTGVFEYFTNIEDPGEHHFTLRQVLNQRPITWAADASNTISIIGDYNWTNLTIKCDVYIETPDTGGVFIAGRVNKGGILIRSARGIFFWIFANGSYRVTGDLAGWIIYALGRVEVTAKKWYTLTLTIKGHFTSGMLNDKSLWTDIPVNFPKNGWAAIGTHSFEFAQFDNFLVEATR
Procedure, shortened: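 Brain-derived Twitcher mouse 145M-Twi cells stably expressing human GALC-G270D or wild-type GALC, treated live, then residual GALC activity read by fluorescence of HMU-b-Gal substrate (0.1 mM final) in citrate-phosphate buffer pH 5.2 with sodium taurocholate. Signal increase indicates enhancement.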
Also: 0% is about no effect; nearly all actives have a fitted effect of over 65% in size.

activation, inactive:
COc1ccc(NC(=O)CSc2nc3c(oc4ccccc43)c(=O)n2Cc2ccco2)cc1Cl -15.3%, CC1CCN(S(=O)(=O)c2nnc(NC(=O)c3cccc(Cl)c3)s2)CC1 -20.5%, Cc1ccc(CCNc2ncnc3onc(-c4ccc(Cl)cc4)c23)cc1 -10.3%, COc1ccc(CNC(=O)CN2C(=O)CSc3ccc(S(=O)(=O)N4CCC(C)CC4)cc32)cc1 -17.5%, COc1ccc(/C=C/C(=O)Nc2nc(-c3cccs3)ns2)cc1 -8.22%, COc1ccc(OCC(O)Cn2c(NCCO)nc3c2c(=O)n(C)c(=O)n3C)cc1 (stereo unspecified) -30.4%, Cc1nn(CC(=O)N2CCN(c3ccc(Cl)cc3)CC2)c(=O)c2cccn12 -11.5%, Cc1csc2nc(COc3cccc(NC(=O)c4ccccc4F)c3)cc(=O)n12 -4.44%, CCN(CC)CCCNc1ncnc2c1cnn2-c1ccc(C)c(C)c1 -11.8%, CCOC(=O)CSc1nc2c(sc3ccccc32)c(=O)n1CCO -18.1%, CC(Cc1ccccc1)(NC(=O)CN)c1ccccc1 (stereo unspecified) -6.63%, CCOc1ccc(NS(=O)(=O)c2ccc3c(c2)CCCN3C(=O)C2CCC2)cc1 -13.7%, Cc1ccc(NC(=O)CSc2cn(CC(=O)N3CCCC3)c3ccccc23)cc1Cl -2.47%, COc1ccccc1CNC(=O)c1cn(C)c2ccc(S(=O)(=O)N(C)C3CCCCC3)cc2c1=O -12.2%, COc1ccc(NCc2cccn2-c2nnc(N3CCCCC3)s2)cc1OC -18.9%, Cc1cc(C)c(NC(=O)C2CCN(c3nn4c(=O)cc(C)nc4s3)CC2)c(C)c1 -12.3%, Cc1ccc2c(=O)cc(C(=O)Nc3ccc(S(=O)(=O)Nc4ncccn4)cc3)oc2c1C -16.5%, Cc1ccc2nc(COc3ccccc3NC(=O)c3ccc(F)cc3)cc(=O)n2c1 2.44%, O=C(CSc1nc2c([nH]c3ccccc32)c(=O)n1-c1ccc(Cl)cc1)c1ccccc1 -2.32%, Cc1cc(C)cc(NC(=O)Cn2cc(C(=O)C3CCCCC3)c3ccccc32)c1 -19.1%, Cc1ccc(-n2c(=O)c3c(c4cc(C)ccc4n3C)n(CC(=O)N3CCCC3)c2=O)cc1 -13.8%, CCOc1ccc(NC(=O)c2c(NC(=O)Cc3ccccc3)sc3c2CCCCC3)cc1 -0.496%, O=C(CSC1=Nc2ccccc2N=C(c2ccc(F)cc2)C1)Nc1ccccc1 -18.6%, O=C(Nc1cnc(N2CCN(c3ccccc3)CC2)c(C(=O)O)c1)c1cccs1 24.4%, CN1CCc2c(sc3c2C(=O)NC(c2ccc(C(C)(C)C)cc2)N3)C1 (stereo unspecified) -3.37%, Cc1cccc(-c2noc(-c3ccc(N4CCOCC4)c([N+](=O)[O-])c3)n2)c1 -21.5%, CC1CCN(S(=O)(=O)c2ccc3c(ccc(=O)n3CC(=O)Nc3cccc(F)c3)c2)CC1 -7.42%, Cc1ccc(NC(=O)c2cc(S(=O)(=O)NCCc3ccc(Cl)cc3)ccc2F)cc1 -9.43%, CC(C)(C)C1CCc2oc3ccc(NS(=O)(=O)c4ccc(C(=O)O)cc4)cc3c2C1 (stereo unspecified) -17.9%, COc1ccc(Cn2c(SCC(=O)N(C)Cc3ccccc3)nc3ccccc32)cc1 -16.1%, Cc1ccc(NC(=O)Cn2c(=O)nc(-c3ccccc3)c3ccccc32)cc1F 0.209%, COc1ccc(CCNc2ncnc3c2cnn3-c2cc(Cl)ccc2C)cc1 -3.27%, COc1ccc(C2N=C(N)Nc3nc4ccccc4n32)cc1 (stereo unspecified) -5.72%, CCOC(=O)C1CCN(c2nc3c(S(=O)(=O)c4ccc(C)c(C)c4)nnn3c3ccc(Cl)cc23)CC1 7.85%, CC1=C(C(=O)N2CCN(c3cccc(Cl)c3)CC2)C2(CCCCC2)OC1=O -13.8%, CC1CCCCN1C(=O)c1cc(-c2ccc(Br)cc2)on1 (stereo unspecified) -10.9%, COc1ccc(OC)c(C2CC(=O)Nc3c2c(=O)[nH]c2ncnn32)c1 (stereo unspecified) -8.36%, COc1ccc(C2NC(=O)N(C)C3=C2C(=O)N(c2ccc(C(=O)O)cc2)C3)cc1 (stereo unspecified) 11.2%, CCOC(=O)c1ccc(CN(Cc2ccc(F)cc2)S(=O)(=O)c2ccc(F)c(C(=O)Nc3c(C)cccc3C)c2)cc1 -17%, CCc1ccc(C2CC(=O)c3c([nH]c(C(=O)OC4CCCC4)c3C)C2)cc1 (stereo unspecified) -14.1%, COc1cccc(-c2nc(CS(=O)(=O)CC(=O)N3CCN(c4cc(C)ccc4C)CC3)c(C)o2)c1 -9.35%, CSc1ncc(C(=O)NCc2ccccc2F)c(-c2ccccc2)n1 -2.49%, Cc1ccc(C)c(N2CCN(S(=O)(=O)c3ccc4c(c3)C(C(C)C)C(=O)N4)CC2)c1 (stereo unspecified) -24.6%, CCCc1ccc(OCC(=O)Nc2sc(C(=O)OCC)c(C)c2C(=O)OCC)cc1 -7.74%, CCc1ccccc1NS(=O)(=O)c1ccc2[nH]cc(C(=O)N(CC)Cc3ccccc3)c(=O)c2c1 -5.44%, COc1ccc(S(=O)(=O)Nc2c(C)nc3nc[nH]n3c2=O)cc1 -9.09%, Cc1ccc2c(CNCc3ccc(C)o3)c(C(=O)O)n(Cc3ccccc3C)c2c1 -0.402%, O=[N+]([O-])c1cccc(S(=O)(=O)NCCNS(=O)(=O)c2cccc([N+](=O)[O-])c2)c1 -16.6%, CCOc1ccc(NC(=O)Cn2c(=O)n(CCCCCC(=O)NCc3ccccc3)c(=O)c3sccc32)cc1 -9.93%, CCc1ccc2occ(CC(=O)Nc3c(C(=O)c4ccc(C)cc4)oc4ccccc34)c2c1 -18.1%, Cc1ccc(S(=O)(=O)n2nc(-c3ccc(Cl)cc3)nc2NCc2ccc(F)cc2)cc1 -19.4%, CC(=O)N1CCCc2cc(S(=O)(=O)N3CCCC(C(=O)N4CCN(c5ccccc5)CC4)C3)ccc21 (stereo unspecified) -9.54%, COc1ccc(CNC(=O)c2cc3cc(OC)ccc3oc2=O)cc1 -6.72%, Cc1cc(C)c2c(CC(=O)Nc3ccc(S(=O)(=O)Nc4nc(C)cc(C)n4)cc3)coc2c1 -11.1%, Cc1cc(S(=O)(=O)C(CNC(=O)c2ccc(F)c(F)c2)c2cccs2)ccc1F (stereo unspecified) 1.34%, Cc1ccc(-n2ncc3c(Nc4cccc(C(=O)O)c4)ncnc32)cc1 -35.1%, CCCSCCCNC(=O)C1CCN(c2nc3ccccc3nc2C(F)(F)F)CC1 -14.4%, Cc1ccc(NC(=O)C(=O)NCC(c2cccnc2)N2CCN(Cc3ccccc3)CC2)cc1F (stereo unspecified) -12.2%, CCCCn1cnc2cc(NCc3ccccc3Cl)ccc21 1.4%, Cc1cccc(/C=C/c2onc(C)c2S(=O)(=O)N2CCC(C(=O)N3CCCCC3)CC2)c1 -18.6%, COc1ccc(-c2[nH]c(-c3ccc(Cl)cc3)nc2SCC(=O)NCC2CCCO2)cc1 (stereo unspecified) -16%, O=S(=O)(NCCc1csc2nc(-c3ccccc3)nn12)c1cc(F)ccc1F -10.1%, Cc1ccc(-c2ccc(=O)n(CC(=O)NCCc3ccccc3)n2)cc1 7.18%, COc1ccc(-c2csc3ncnc(Nc4cccc(OC)c4)c23)cc1 -16.7%, CCOCCCNC(=O)c1ccc(-n2c(-c3ccccc3)cc3c2CCC(C)C3)cc1 (stereo unspecified) 13.2%, CSc1cccc(NC(=O)Nc2ccccc2OCc2cc(=O)n3cc(C)ccc3n2)c1 -10%, O=C(Cc1cccs1)NC1CC(=O)N(c2ccc(F)cc2)C1 (stereo unspecified) -5.73%, Cc1oc(-c2ccc(C(=O)NCc3ccccc3)cc2)nc1CN1CCc2ccccc21 -10.6%, COc1ccc(-c2nc3ccccc3s2)cc1NC(=O)c1ccccc1F 6.58%, O=C(NCc1ccc(Cl)cc1)NCc1noc2ccccc12 -12.8%, COc1ccc(NC(=O)CCNS(=O)(=O)c2ccc3c(c2)CCCC(=O)N3)cc1Cl -19.9%, Cc1cc(N)c2cc(NC(=O)Nc3ccc4nc(C)cc(N)c4c3)ccc2n1 -9.56%, CCc1ccc(S(=O)(=O)Nc2ccc3c(c2)n(C)c(=O)c(=O)n3C)cc1 -9%, CCC(=O)N1CCc2cc(Br)cc(S(=O)(=O)CCC(=O)N3CCN(c4cccc(C)c4)C(C)C3)c21 (stereo unspecified) -10.2%, COc1ccc(C(=O)Nc2ccc3nc(SCC(=O)N4CCc5ccccc54)sc3c2)cc1 -22.4%, Cc1ccc2c(c1)C(c1ccc(F)cc1)N(C(=O)c1ccc(S(=O)(=O)N3CCCCC3)cc1)CC(=O)N2 (stereo unspecified) -13%, Cc1ccc(S(=O)(=O)c2nnn(-c3ccc(F)c(Cl)c3)c2N)cc1 -18.3%, COC(=O)c1ccccc1NC(=O)C1=CC(c2cccs2)=NS(=O)(=O)N1C -8.48%, Cc1cc(OCC(=O)Nc2cc(-c3nc4ncccc4o3)ccc2C)ccc1Cl -24.7%, COc1ccc(-n2nc3cc(C)c(NC(=O)c4ccc(-c5ccc(Cl)cc5)o4)cc3n2)cc1 -6.79%, COc1ccc(CCNC(=O)c2nc(-c3ccc(Cl)cc3)n3c2CCCCC3)c(OC)c1 -19.8%, COc1ccc(OCc2ccc(-c3nc(C#N)c(NC(C)c4ccccc4)o3)o2)cc1 (stereo unspecified) -13.4%, Cc1nn(CC(=O)Nc2ccc(OC(F)(F)F)cc2)c(=O)c2c(C)n(-c3ccc(Cl)cc3)nc12 3.94%, CCOc1ccc2nc(N3CCCC(C(=O)NCCc4ccc(OCC)c(OCC)c4)C3)sc2c1 (stereo unspecified) -17.3%, Cc1cccc(C)c1Nc1c(-c2ccccn2)nc2c(C)cccn12 -4.76%, Cc1cc(Cl)ccc1NC(=O)Cc1ccc(NC(=O)N2CCCCc3ccccc32)cc1 -9.05%, CCCCCC1Nc2cc(C(F)(F)F)c(S(N)(=O)=O)cc2S(=O)(=O)N1 (stereo unspecified) -17.3%, Cc1ccc(Nc2c(-c3ccc(C)s3)nc3ccccn23)cc1 -5.01%, Cc1ccc(-c2cc3ncc4c(n3n2)-c2cc(F)ccc2OC4)cc1 -4.73%, CCOC(=O)CNC(=O)N1CCCN(S(=O)(=O)c2ccc3c(ccn3CC)c2)CC1 -17.3%, COc1ccc(C)c2sc(N3CCN(C(=O)c4cccc(F)c4)CC3)nc12 -10.7%, CCOc1ccccc1NC(=O)N(Cc1ccc(C)o1)C1CCN(C(C)=O)CC1 -1.18%, CCc1nn2c(=O)cc(COC(=O)c3ccccc3)nc2s1 -19.4%, O=C(c1ccccc1Br)N(Cc1ccco1)Cc1ccco1 3.65%, CCn1c(SCc2c(F)cccc2Cl)nc(=O)c2c(C(=O)OC)cc(C3CC3)nc21 -9.12%, O=C(CSc1nnc(-c2ccc(Cl)cc2)o1)c1ccc([N+](=O)[O-])cc1 -24.9%
